Some of the results follow. Single values of this set are uncertain. Values with irradiation are relative to irradiated vehicle.
Experiments:
A549-Dual [1] = test: NF-kB reporter (SEAP) activity, viability-corrected, relative to vehicle (fold change vs vehicle); higher = more activation of STING-IRF / NF-kB immune response reporter; conditions: 10 µM
A549-Dual [2] = test: ISRE reporter (Lucia luciferase) activity, viability-corrected, relative to vehicle (fold change vs vehicle); higher = more activation of STING-IRF / NF-kB immune response reporter; conditions: 10 µM
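For NF-kB reporter (SEAP) activity, viability-corrected, relative to vehicle in this document: viability correction based on the alamar blue assay, with concentrations leaving 10% survival or less dropped.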

SMILES | NF-kB reporter (A549-Dual [1]; irradiation: 8 Gy/4 fr) | NF-kB reporter (A549-Dual [1]; irradiation: none) | ISRE reporter (A549-Dual [2]; irradiation: 8 Gy/4 fr) | ISRE reporter (A549-Dual [2]; irradiation: none)
Cl.Cl.OCCOCCN1CCN(C(c2ccccc2)c2ccc(Cl)cc2)CC1 (stereo unspecified) [Hydroxyzine 2HCl] | 0.848 | 0.821 | 1.07 | 1.16
CN1CC2CC1CN2c1cc2c(cc1F)c(=O)c(C(=O)O)cn2C1CC1.CS(=O)(=O)O (stereo unspecified) [Danofloxacin Mesylate] | 1.1 | 1.17 | 0.799 | 1.13
C=C(CC)C(=O)c1ccc(OCC(=O)[O-])c(Cl)c1Cl.[Na+] [Ethacrynate Sodium] | 1.42 | 1.04 | 1.45 | 1.32
CC1CN(c2c(F)c(N)c3c(=O)c(C(=O)O)cn(C4CC4)c3c2F)CC(C)N1 (stereo unspecified) [Sparfloxacin] | 0.595 | 0.962 | 0.578 | 0.779
O=C1C(CCS(=O)c2ccccc2)C(=O)N(c2ccccc2)N1c1ccccc1 (racemic) [(+/-)-Sulfinpyrazone] | 0.711 | 0.571 | 0.671 | 0.401
CC(=O)N(O)CCCCCNC(=O)CCC(=O)N(O)CCCCCNC(=O)CCC(=O)N(O)CCCCCN.CS(=O)(=O)O [Deferoxamine mesylate] | 0.814 | 0.946 | 0.194 | 0.34
CSCCC(N)C(=O)O (racemic) [DL-Methionine] | 0.988 | 0.858 | 0.896 | 0.807
CCCC(CCC)C(=O)O.CCCC(CCC)C(=O)[O-].[Na+] [Divalproex Sodium] | 0.738 | 0.92 | 0.737 | 0.792
CCC(C)(C)C(=O)OC1CC(C)C=C2C=CC(C)C(CCC3CC(O)CC(=O)O3)C21 (stereo unspecified) [Simvastatin] | 1.61 | 2.25 | 0.429 | 1.64
CC(C)OC(=O)CCC/C=C\CC1C(O)CC(O)C1/C=C/C(O)COc1cccc(C(F)(F)F)c1 (stereo unspecified) [Travoprost] | 0.709 | 0.954 | 0.374 | 0.671
CNC(CC(C)C)C(=O)NC1C(=O)NC(CC(N)=O)C(=O)NC2C(=O)NC3C(=O)NC(C(=O)NC(C(=O)O)c4cc(O)cc(O)c4-c4cc3ccc4O)C(O)c3ccc(c(Cl)c3)Oc3cc2cc(c3OC2OC(CO)C(O)C(O)C2OC2CC(C)(N)C(O)C(C)O2)Oc2ccc(cc2Cl)C1O.Cl (stereo unspecified) [Vancomycin HCl] | 0.887 | 0.968 | 0.859 | 1.06
CC(C)NCC(O)COc1cccc2[nH]ccc12 (stereo unspecified) [Pindolol] | 0.71 | 0.742 | 0.609 | 0.8
COc1cccc(OC)c1C(=O)OCc1cc(O)ccc1OC1OC(CO)C(O)C(O)C1O (stereo unspecified) [Curculigoside] | 1.35 | 0.852 | 1.51 | 0.813
CC(C)(Oc1ccc(C(=O)c2ccc(Cl)cc2)cc1)C(=O)[O-].C[N+](C)(C)CCO [Choline Fenofibrate] | 0.667 | 0.652 | 0.614 | 0.475
